B1: GluA8 derivative of AspB10, 2F-PheB24, LysB28, ProB29-human insulin (T-0338) (ligand)
chain 1: not shown
chain 2: FVNQHLCGSDLVEALYLVCGERGFFYTKPT
modifications: ortho-fluoro-Phenylalanine (2F-Phe) at B24
B2: GluA8 derivative of AspB10, ortho-fluoro-PheB24, GluB29-insulin (T-0339) (ligand)
chain 1: not shown
chain 2: not shown
modifications: ortho-fluoro-Phenylalanine (2F-Phe) at B24
B3: GluA8, GlyA21 derivative of AspB10, 2F-PheB24, GluB29-human insulin (T-0348) (ligand)
chain 1: not shown
chain 2: not shown
modifications: ortho-fluoro-Phenylalanine (2F-Phe) at B24
B4: GlyA21 derivative of AspB10, 2F-PheB24, LysB28, ProB29-human insulin (T-0346) (ligand)
chain 1: not shown
chain 2: FVNQHLCGSDLVEALYLVCGERGFFYTKPT
modifications: ortho-fluoro-Phenylalanine (2F-Phe) at B24
B5: GlyA21 derivative of AspB10, ortho-fluoro-PheB24, GluB29-insulin (T-0347) (ligand)
chain 1: not shown
chain 2: not shown
modifications: ortho-fluoro-Phenylalanine (2F-Phe) at B24

What follows are binders tested against T1, Type 1 IGF Receptor (IGF-1R) (assay: competitive displacement of radiolabelled tracer; Kd fitted with a heterologous competition model).
T1 construct: also called Type 1 insulin-like growth factor receptor; Type 1 IGF-I receptor
Procedure: The protocol for assay of receptor-binding activities was as follows. Microtiter strip plates (Nunc Maxisorb) were incubated overnight at 4° C. with AU5 IgG (100 μl/well of 40 mg/ml in phosphate-buffered saline). Binding data were analyzed by a two-site sequential model.
Work on B1 yielded a Kd of 7 nM.
B2 showed a Kd of 20 nM.
B3 gave a Kd of 24 nM.
Binder B4 has a Kd of 10 nM.
In the case of B5, the Kd is reported as 27 nM.

From patent US20170304361A1 (CASE WESTERN RESERVE UNIVERSITY, published 2017)
